# Assay results as given in the supplement of paper PMC11417369.
# The other results are listed elsewhere or left out.
# Test system: PF3D7_0420300 AP2 domain 1 (GST-tagged)
# Assay: gcPBM binding intensity (ln(normalized median fluorescence intensity)); higher = stronger DNA binding
# How it was run: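 Binding intensity is defined as the maximum Masliner-normalised natural-log median intensity across replicate spots for either probe orientation. It was measured on an Agilent 4 × 180k array of primer-extended double-stranded 36-bp intergenic genomic probes and negative controls, to which GST-tagged P. falciparum DNA-binding domains made in E. coli were applied for 1 h in 1× PBS with 1% milk, 0.2 mg/ml BSA, 0.5% salmon testes DNA and 0.03% Triton X-100. Detection was by Alexa488 anti-GST antibody and scanning at 488 nm.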
row,Sequence,gcPBM binding intensity (ln)
1,ATAAATGACAAATTAACACACATATATTATATATAT [CACACA_site3899],9.53
2,ACCATATAAATAAACACACACACACGGATATAAATA [CACACA_site7157],10.1
3,TGAATTTAGATATATACACACAAAAGTATATACAAT [CACACA_site2804],9.6
4,TATATGTTTTATAGTACACACATAAATGGACATACT [CACACA_site2191],9.58
5,CCCACTAAAAAACACACACACACACCCATATATATA [CACACA_site6140],10.2
6,ATATGTATTAAGTGTACACATATAATCTATCTTGTT [CACACA_site5329],9.37
7,TTTTTTTTATATAGTAGTACTAATTAGAATTTTTAT [XGTACX_site7476],9.06
8,ACTAAACGAATAAATTGTACAAAGAAATATATTCAT [XGTACX_site6766],9.24
9,CAACAAAAGTTATTTACACACAAAAGGCAAGGAAAT [CACACA_site7013],10
10,ACTACGTGGATTAGTTCAAGGGAACACGTCCTATAC [CACACA_negctrl_site1427],8.99
11,AAAGGAAATAAAAACGCACACAGAAATAATATCTAT [CACACA_site457],9.97
12,TAAAAAATTACATATTGTACAGGCAAAATTACACAT [XGTACX_site1152],9.5
13,ATATTTCATTTTTGTACACACAACGTTGGAGGGTTT [CACACA_site3043],9.65
14,TCATATAAATACACGTGTACATATATATATTACAGT [XGTACX_site1954],9.32
15,AAAAAATATATATGCACACACAAAAAAACAAATTAA [CACACA_site1278],9.94
16,AATATAAAAAATAGTTGTACTATATTTAAATATGAC [XGTACX_site2937],9.31
17,AGTTTGCATATGGAAGTGCATTACCTTGAACATCAT,9.12
18,AACTCATAAAATAATGGTACACAAAAAAAATAAATA [XGTACX_site7648],9.5
19,TTTTTTTTTTTCTTTTGTACGTATAAAATTATATAA [XGTACX_site2453],9.1
20,CAAGGAACCAGACACACACACATAAATGTATTTATA [CACACA_site6491],9.82
21,TTAGGCAAGGCGGGGGGTACGTTTTTATATAATTAT [XGTACX_site8029],10.6
22,TTAGATTTATAAGTGTGTACGTAAAATACTTAATAA [XGTACX_site8246],9.09
23,TTTATGGAATAATCACGTACACACAAGAAAAAAAAA [XGTACX_site985],9.83

row,Sequence,gcPBM binding intensity (ln)
1,TGTGTGTGCTTATTTTGTACATATTAGGTAAATATT [XGTACX_site6329],9.67
2,TTTTTATCTAATCTAATATTATATTATACATATAAT [XGTACX_negctrl_site275],9.12
3,ATATCTATAATAAATACACACATTTATATAGATAAA [CACACA_site7518],9.34
4,AACAGCATTATTTCTTATTTTTTTTTTGATATATTT [GTGCAC_negctrl_site114],9.47
5,GTTATATTATTCATACGTACCTATATTTCTATTAAC [XGTACX_site3447],9.59
6,ATGTGTTGGGAAAAGGCATGCACTTTTTTTTTTTTT [TGCATGCA_site707],9.36
7,TTTTCCTTATATTATGCATGCAGGGTTTGACATTAT [TGCATGCA_site826],9.25
8,TGATAACCTCACAAATGTACGTACGGGGCTAGCATT [XGTACX_site4157],9.28
9,AAAAAAAAAAAATAGACACACATATTATATATATAT [CACACA_site1419],9.54
10,TATTATTCTATACATTGTACATATTTTATAGTATGT [XGTACX_site73],9.3
11,TTTAAAACCTTACATACACACAAATATGTAAATATA [CACACA_site6464],9.43
12,TTCATATAACCTTATAGTACATAATTAAAAATATAA [XGTACX_site6328],8.94
13,CACGCATATATACATACATGCATATATACATCCATG [TGCATGCA_site667],9.27
14,AAAAAAAAAAAAAAAACACACATATAGGTATAAATA [CACACA_site7528],9.55
15,CACAGACACGGACACACACACACACCCACATATATA [CACACA_site4355],10.3
16,ATATATTTTAAATATATTATTATTGCATTGTGAAAA [TGCATGCA_negctrl_site106],8.94
17,TCTTAAAAAATAGGGACACGTAAATATAATATATAA [CACACA_negctrl_site554],9.4
18,AAAAAAAAAAAAAAAACACACATATATATATATATA [CACACA_site2436],9.59
19,TATATATATATATATAGTACATATTAATTAATTTAT [XGTACX_site8198],9.1
20,ACACATACTAAAATGTTGTGAAATATGATAATGTGA [CACACA_negctrl_site851],9.31
21,TTATAATAATAGAACTTTATGTAGAAAAAAGGAAAA [XGTACX_negctrl_site116],9.17
22,TTAAATAAGTAATTATGTACATATAATATTCTTTAT [XGTACX_site5280],9.06
